# In PubChem BioAssay AID493208 (National Center for Advancing Translational Sciences (NCATS), 2011):
# The whole screen tested about 44,000 compounds, of which about 340 (0.77%) were called active. Another 5% or so got no clear call; they are omitted. Calls follow the shape of the dose curve; as a rule, active = well fitted inhibition curve with a large enough effect; inconclusive = small, poorly fitted or top-dose-only effect; inactive = flat fitted curve, though single readings scatter. The list shows a part of the results.
# Assay: Acumen qHTS Assay for Inhibitors of the mTORC1 Signaling Pathway in MEF (Tsc2-/-, p53-/-) Cells: Sytravon;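 also: plate controls were DMSO for no effect and rapamycin for full effect; nearly all actives have a fitted effect of over 50% in size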
# Settings: phospho-rpS6 immunofluorescence/PI, 24 h; series mostly up to 38.3 µM; activity change, negative = inhibition: at the top concentration
# Summary of the method: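 Read-out: phospho-S6 Alexa-488 intensity over PI intensity per well, scored as % active cells using thresholds from rapamycin (7.5 nM) and DMSO controls. Tsc2-/-, p53-/- MEFs exposed to compound for 24 h; PI cell count recorded as viability.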
row,SMILES,"activity change, negative = inhibition"
1,Cc1ccc(CN2CCN(C3CCN(C(=O)Nc4ccccc4C(F)(F)F)CC3)C(=O)C2=O)cc1,inactive: 1.13%
2,CCn1c(=O)cc(OCC(=O)N2CCN(c3ccccc3OC)CC2)c2ccccc21,inactive: -0.18%
3,Cc1ccc(S(=O)(=O)n2nc(-c3ccco3)nc2NCc2ccccc2Cl)cc1,inactive: 2.64%
4,Cn1c(CNC(=O)CSc2nc(-c3cccc(Cl)c3)nc3cc(=O)[nH]n23)nc2ccccc21,inactive: 4.48%
5,COc1cccc(NC(=O)C2CCN(c3nc4ccccc4nc3C(F)(F)F)CC2)c1,inactive: -27.4%
6,Cc1cccc(Cn2nnc(C(=O)Nc3cc(C)ccc3C)c2N)c1,inactive: -1.63%
7,Cc1cccc(C)c1NC(=O)CCCN1C(=O)CCn2nc(-c3cn(C)c4ccccc34)cc21,inactive: 2.27%
8,Cc1ccc(CNC(=O)CCCn2c(=O)c3ccccc3n(Cc3ccccc3C)c2=O)cc1,inactive: 4.13%
9,CC(NC(=O)c1ccc2c(c1)N(Cc1ccc(Cl)cc1)C(=O)c1ccccc1S2=O)c1ccccc1 (stereo unspecified),inactive: -1.05%
10,COc1ccc(Cl)cc1NC(=O)Cn1cnc2c1c(=O)n(C)c(=O)n2C,inactive: 8.19%
11,CC(C)NC(=O)C1CCCN(c2ncnc3c2nc2n3CCCCC2)C1 (stereo unspecified),inactive: 3.46%
12,CCCN1CCN(c2cc3c(cc2F)c(=O)c(S(=O)(=O)c2ccc(Cl)cc2)cn3C)CC1,inactive: 0.384%
13,COc1ccc(C(=O)NCC(c2ccc(N(C)C)cc2)N2CCc3ccccc32)cc1 (stereo unspecified),inactive: -20.4%
14,Cn1c(=O)n(C)c2cc(N3CCOCC3)c(NC(=O)c3c(F)cccc3F)cc21,inactive: -21.2%
15,Cc1cc(C)c2sc(NC(=O)c3ccc(S(=O)(=O)N4CCOCC4)cc3)nc2c1,inactive: 0.839%
16,COc1cc(OC)c(NC(=O)Nc2c(C)n(C)n(-c3ccccc3)c2=O)cc1Cl,inactive: 8.8%
17,CCc1cc2c(-c3ccccc3)cc(=O)oc2c2c1OCN(Cc1ccc(F)cc1)C2,inactive: -1.15%
18,CCC(Oc1ccccc1)C(=O)Nc1ccc(OCc2cc(=O)n3ccccc3n2)cc1 (stereo unspecified),inactive: -16.2%
19,CCOc1ccc(CNC(=O)C2Cc3ccccc3N2C(=O)CC)cc1 (stereo unspecified),inactive: 0%
20,COC(=O)c1ccccc1NC(=O)c1ccc2c(=O)n3c(nc2c1)CCCCC3,inactive: -5.33%
21,O=C(CN1C=NS(=O)(=O)c2ccc(C(F)(F)F)cc21)Nc1cccc(C(F)(F)F)c1,inactive: 0.11%

row,SMILES,"activity change, negative = inhibition"
1,CCOC(=O)c1cc(NC(=O)c2ccc(Cl)cc2)c(=O)n2c1oc1ccccc12,inactive: 0.735%
2,O=C(Nc1ccc(Br)cc1)c1cccc(C(=O)Nc2ccc(Br)cc2)c1,inactive: -7.28%
3,O=S(=O)(c1ccc(Cl)cc1)c1nc(-c2ccccc2)oc1N1CCN(c2ccccc2)CC1,inactive: -0.436%
4,CCOc1ccc(C2CC(=O)c3c([nH]c(C(=O)OC4CCC(C)CC4)c3C)C2)cc1 (stereo unspecified),inactive: -13.1%
5,COc1ccccc1N1CCN(C(=O)CN2C(=O)COc3ccc(S(=O)(=O)N4CCCC4)cc32)CC1,inactive: -15%
6,CCc1cccc(NC(=O)CSc2nc3ccsc3c(=O)n2CC)c1,inactive: 1.12%
7,CCn1c(/C(C#N)=C/c2ccccc2Cl)nc2ccccc21,inactive: -12.4%
8,CCc1nc(SCc2cc(=O)c3cc(C)ccc3[nH]2)n[nH]1,inactive: -0.858%
9,Cc1ccc(CNC(=O)Cn2c(=O)n(Cc3ccccc3)c(=O)c3sc4ccccc4c32)cc1,inactive: 0.854%
10,Cc1ccc(CN(Cc2cccn2-c2nnc(N3CCCC3=O)s2)C(=O)Nc2ccccc2C(F)(F)F)cc1,inactive: -0.0028%
11,Cc1ccc(S(=O)(=O)CC(=O)Nc2sc3c(c2C(N)=O)CCCC3)cc1,inactive: -11.5%
12,CCc1ccc(NC(=O)Cc2c(C(=O)O)c(C)cn2C)cc1,inactive: -9.62%
13,CC(C)CCNC(=O)Nc1ccc2c(c1)N(Cc1ccccc1)C(=O)c1ccccc1S2,inactive: -6.78%
14,COc1cc(OC)c(NC(=O)c2cc(C)nc3c2c(C)nn3-c2ccc(C)cc2)cc1Cl,inactive: 2.22%
15,Cc1ccc(NC(=O)CCN2CCN(CCO)CC2)cc1C,inactive: 3.49%
16,COc1ccc(CCNC(=O)c2ccc3c(c2)N(Cc2ccc(Cl)cc2)C(=O)c2ccccc2S3)cc1OC,inactive: 5.15%
17,CCN(Cc1nc(-c2ccc(OC)cc2)oc1C)S(=O)(=O)c1ccc(C)cc1,inactive: 5.32%
18,Cc1ccc(NC(=O)CN2CCSc3ccc(S(=O)(=O)N4CCCC4)cc32)cc1,inactive: -9.48%
19,Cc1c(CCNC(=O)c2ccco2)sc2nc(-c3ccc(F)cc3)nn12,inactive: -10.2%
20,CC(=O)c1ccc(NC(=O)Cn2c(-n3nc(C)cc3C)nc(C)c(C)c2=O)cc1,inactive: 2.77%
21,CCOC(=O)Cc1ccc(NC(=O)N2CCC(CN3CCCCCC3)CC2)cc1,inactive: -8.21%

row,SMILES,"activity change, negative = inhibition"
1,CCOc1ccccc1Nc1nnc(-c2cc3cc(OC)ccc3oc2=O)s1,inactive: -1.78%
2,CCN(CC)c1cc2c(cc1F)c(=O)c(S(=O)(=O)c1ccc(OC)cc1)cn2Cc1ccccc1,inactive: -9.68%
3,CCCCN(CC)C(=O)c1cc2c(=O)n3cccc(C)c3nc2n1C,inactive: 8.24%
4,CCc1ccc(Oc2c(C(F)(F)F)oc3c(CN4CCC(C)CC4)c(O)ccc3c2=O)cc1,inactive: 12.8%
5,CCCCN(CC)CCCNC(=O)Cn1ncc2c3ccccc3n(C)c2c1=O,inactive: -8.03%
6,CCOc1ccc(S(=O)(=O)N(CC(=O)NCc2ccccc2OC)c2ccccc2)cc1,inactive: -2.79%
7,COc1cccc(CSc2nc3n(n2)C(CC(C)C)C(C(=O)Nc2ccccc2OC)=C(C)N3)c1 (stereo unspecified),inactive: -3.04%
8,COc1ccc(C(=O)N2CCC(C(=O)Nc3ccc(Cl)cc3)CC2)cc1,inactive: 1.1%
9,Cc1cc(=O)n2nc(N(C)CC(=O)NCc3cccc(Br)c3)sc2n1,inactive: -0.938%
10,Cc1nc2ccc(S(=O)(=O)N(CC(=O)Nc3cccc(F)c3)Cc3ccccc3)cc2s1,inactive: 0.56%
11,CC(C)CCn1c(=O)c2sccc2n2c(CCCC(=O)NCCc3ccccc3)nnc12,inactive: 2.6%
12,O=C1CC(c2ccccc2)c2c(n3ncnc3[nH]c2=O)N1 (stereo unspecified),inactive: -1.08%
13,CCc1cccc(NC(=O)Cn2c(=O)n(CC(=O)NCCc3ccccc3)c(=O)c3ccccc32)c1,inactive: 3.92%
14,COc1ccccc1C(=O)N1CCC(c2noc(-c3ccc(S(=O)(=O)N4CCCC4)cc3)n2)CC1,inactive: -8.59%
15,COc1cccc(CNC(=O)c2oc3c(c2C)-c2nn(Cc4cccc(Cl)c4)cc2CC3)c1OC,inactive: 1.56%
16,O=C(NCCc1ccc(Cl)cc1)c1ccc(CS(=O)Cc2ccccc2Cl)o1 (stereo unspecified),inactive: -0.356%
17,COc1ccc(NC(=O)Cn2c(SCc3ccc(F)cc3)nc3cccnc32)cc1OC,inactive: -17.9%
18,Cc1cccc(NC(=O)C2CCN(c3nc4ccccc4[nH]3)CC2)c1C,inactive: 12.9%
19,Cc1ccc(C)c(CNC(=O)CCn2cccn2)c1,inactive: -14%
